Assay results taken from PubChem BioAssay AID686978 (National Center for Advancing Translational Sciences (NCATS), 2013).
Screen size: about 420,000 compounds; about 64,000 (15%) were called active. This list was built around the results that the source calls inconclusive (neither active nor inactive); the mix of calls is not that of the screen. Calls come from the whole dose curve; as a rule, active = well fitted inhibition curve with a large enough effect; inconclusive = small, poorly fitted or top-dose-only effect; inactive = flat fitted curve, though single readings scatter. Potencies of inconclusive entries are left out as doubtful fits.

Experiment: qHTS for Inhibitors of human tyrosyl-DNA phosphodiesterase 1 (TDP1): qHTS in cells in absence of CPT; note: nearly all actives have a fitted effect of over 55% in size
Details: DT40 Tdp1-/- hTDP1 cells, no CPT, ATP luminescence, 48 h; activity change, negative = growth inhibition: at 46.2 µM (top of the series) unless noted
Method in brief: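 Luminescent ATP content (CellTiter-Glo) served as the growth readout. Knockout chicken DT40 cells expressing human TDP1 were exposed to compounds without camptothecin for a minimum 48 hr at 37 °C.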
% is set by controls: 0 for no effect and ±100 for the full control effect; potency is the fitted concentration of half-maximal effect; tags give direction and shape of the fitted curve.

Question: For Cc1occc(=O)c1OC(=O)Nc1ccc(Cl)c(Cl)c1, which Potency is on record?
Answer: The Potency was active: 4.61 µM.

Question: Which activity change, negative = growth inhibition does the source give for COc1cc(NC(=O)c2cc(C(C)C)on2)cc(OC)c1OC here?
Answer: The activity change, negative = growth inhibition was inconclusive: -30.9% [inhibitor].

Question: With C[C@@H]1C[C@H]2[C@@H]3C[C@H](F)C4=CC(=O)C=C[C@]4(C)[C@@]3(Cl)[C@@H](O)C[C@]2(C)[C@H]1C(=O)COC(=O)C(C)(C)C as the compound, how does the activity change, negative = growth inhibition read?
Answer: The activity change, negative = growth inhibition was inconclusive: -36.2% [inhibitor].

Question: Which Potency does the source give for CC(Nc1ccc(Br)cc1)C(=O)NC(=O)NC1CCCCC1 (stereo unspecified) here?
Answer: The Potency was inconclusive [inhibitor, single point].

Question: Which activity change, negative = growth inhibition does the source give for CCc1cccc(CC)c1-n1c(SCC(=O)c2c(N)n(C)c(=O)n(C)c2=O)nnc1-c1cccnc1 here?
Answer: Its activity change, negative = growth inhibition is inconclusive: -17.9% [inhibitor].

Question: For COc1ccc(OCCN2CCC(C(=O)NC(c3ccsc3)c3ccccc3C)CC2)cc1 (stereo unspecified), which Potency is on record?
Answer: Its Potency is inconclusive [inhibitor, single point].

Question: For N#C/C(=C\c1ccc(Oc2ccc(C(F)(F)F)cc2[N+](=O)[O-])cc1)c1nc2ccccc2[nH]1, which Potency is on record?
Answer: The Potency was active: 20.6 µM.

Question: Which Potency does the source give for O=C(Nc1cccc(Oc2ccccc2)c1)C1Cc2c(-c3cccc(F)c3)ccnc2O1 (stereo unspecified) here?
Answer: Its Potency is inconclusive [inhibitor, single point].

Question: With CCOc1ccc(C(c2c(O)nc(SC)[nH]c2=O)c2c(O)nc(SC)[nH]c2=O)cc1 as the compound, how does the activity change, negative = growth inhibition read?
Answer: The activity change, negative = growth inhibition was inconclusive: -30.8% [inhibitor].

Question: Which Potency does the source give for Cc1cc(OCC(=O)N(C)C)c2c(-c3ccccc3)cc(=O)oc2c1 here?
Answer: The Potency was inconclusive [inhibitor, single point].

Question: For COc1ccc(NC(C)=O)cc1NC(=O)c1cccc(S(=O)(=O)N2CCN(Cc3ccccc3)CC2)c1, which Potency is on record?
Answer: The Potency was inconclusive [inhibitor, single point].

Question: With COC1=CC(=O)c2c(ccc3ncnc(N)c23)C1=O as the compound, how does the Potency read?
Answer: The Potency was active: 0.291 µM.

Question: For CN1CCN(C(c2ccccc2Cl)c2sc3nc(-c4ccco4)nn3c2O)CC1 (stereo unspecified), which “activity change, negative = growth inhibition” value is on record?
Answer: Its value is inactive: -3%.

Question: With CCCCOc1ccc(/C=C/C(=O)NCCc2nc3ccccc3[nH]2)cc1 as the compound, how does the Potency read?
Answer: The Potency was inconclusive [inhibitor, single point].

Question: With O=C(Nc1cccc(C(=O)Nc2ccccc2F)c1)c1ccccc1 as the compound, how does the Potency read?
Answer: The Potency was active: 23.1 µM.

Question: For CCCC(=O)Nc1nnc(-c2cccc(OCC)c2)s1, which activity change, negative = growth inhibition is on record?
Answer: The activity change, negative = growth inhibition was inconclusive: -33% [inhibitor].

Question: With Cc1cc(NC(=O)CN(C)CCOc2ccccc2)ccc1Br as the compound, how does the Potency read?
Answer: Its Potency is active: 18.4 µM.

Question: With CCCN(C(=O)c1cccs1)c1nnc(-c2ccncc2)s1 as the compound, how does the Potency read?
Answer: The Potency was inconclusive [inhibitor, single point].

Question: For O=C(Nc1cccc(NC(=O)c2ccc3c(c2)OCO3)c1)c1ccccc1, which “activity change, negative = growth inhibition” value is on record?
Answer: Its value is inactive: -28.1%.

Question: Which “activity change, negative = growth inhibition” value does the source give for COc1nc(N)nc(N)c1NS(=O)(=O)c1ccc(C)cc1 here?
Answer: Its value is inactive: 12.8%.

Question: For C=CCn1c(SCc2nc3cc(C(F)(F)F)ccc3c(=O)[nH]2)nc2sc(CC)cc2c1=O, which Potency is on record?
Answer: The Potency was inconclusive [inhibitor, partial curve, poor fit].

Question: With CN(C)c1ccc(C=NNc2nc3c([nH]2)c(=O)n(C)c(=O)n3C)cc1 as the compound, how does the Potency read?
Answer: The Potency was inconclusive [inhibitor, partial curve].

Question: With CC(C)Sc1nc2c(c(=O)n(C)c(=O)n2C)n1Cc1ccc(Cl)cc1 as the compound, how does the Potency read?
Answer: The Potency was inconclusive [inhibitor, single point].

Question: Which “activity change, negative = growth inhibition” value does the source give for Nc1c(Br)cc(Br)c2c1-c1ccc([N+](=O)[O-])cc1C2 here?
Answer: Its value is inactive: -4.86%.

Question: For Cc1cccc(NC(=O)C2CCCN(S(=O)(=O)c3cccc4nonc34)C2)c1C (stereo unspecified), which Potency is on record?
Answer: The Potency was inconclusive [inhibitor, single point].

Question: With O=C(c1[nH]c(C(F)(F)F)nc1-c1ccccc1)N1CCN(c2ccccn2)CC1 as the compound, how does the Potency read?
Answer: Its Potency is inconclusive [inhibitor, single point].

Question: For Cc1cc(OCCOCCN(C)CCO)cc(C)c1Cl, which Potency is on record?
Answer: Its Potency is inconclusive [inhibitor, partial curve, poor fit].

Question: For Cc1nc(N)c(C#N)c(-c2ccc3c(c2)OCO3)c1C, which “activity change, negative = growth inhibition” value is on record?
Answer: Its value is inactive: 9.51%.

Question: Which “activity change, negative = growth inhibition” value does the source give for COc1ccc(CCNC(=O)C2CCN(c3nn4c(=O)cc(C)nc4s3)CC2)cc1OC here?
Answer: Its value is inactive: 6.86%.

Question: Which “activity change, negative = growth inhibition” value does the source give for O=S(=O)(c1ccc(F)c2ccccc12)N1CCCCC1 here?
Answer: Its value is inactive: -18%.

Question: For N=c1oc2ccccc2cc1C(=O)NC1CCCCCC1, which “activity change, negative = growth inhibition” value is on record?
Answer: Its value is inactive: -17.8%.

Question: With Cc1cc(=O)oc2cc(O)cc(OCc3ccccc3)c12 as the compound, how does the Potency read?
Answer: The Potency was active: 16.4 µM.

Question: Which Potency does the source give for COc1ccc(/C=C2\Sc3ccc(C(=O)N4CCCC4)cc3N(C)C2=O)cc1OC here?
Answer: The Potency was inconclusive [inhibitor, single point].

Question: Which Potency does the source give for Cc1cc(C(=O)N/N=C/c2ccc([N+](=O)[O-])cc2)c(C)o1 here?
Answer: Its Potency is inconclusive [inhibitor, single point].

Question: For CCCCC(CC)CNC(=O)C(=O)C1C(=O)Nc2ccccc21 (stereo unspecified), which Potency is on record?
Answer: The Potency was inconclusive [inhibitor, single point].

Question: With Cc1cc2oc(=O)cc(CN(C)Cc3ccccc3)c2cc1Cl as the compound, how does the Potency read?
Answer: The Potency was inconclusive [inhibitor, single point].

Question: With CS(=O)(=O)N(CC(=O)Nc1c(F)cccc1F)Cc1ccccc1 as the compound, how does the “activity change, negative = growth inhibition” value read?
Answer: Its value is inactive: 0.716%.

Question: Which Potency does the source give for Cc1cc(C(=O)N2CCCC(N3CCN(c4ccc(F)cc4)CC3)C2)c(C)o1 (stereo unspecified) here?
Answer: Its Potency is active: 18.4 µM.

Question: Which Potency does the source give for C[C@@H]1CN([C@H](C)CO)S(=O)(=O)c2ccc(C#Cc3ccccc3F)cc2O[C@H]1CN(C)C(=O)c1ccc2c(c1)OCO2 here?
Answer: Its Potency is active: 6.51 µM.

Question: Which Potency does the source give for CCOC(=O)c1cc(CC)sc1/N=C/c1c(O)ccc2ccccc12 here?
Answer: The Potency was inconclusive [inhibitor, single point].

Question: With COc1ccc(-c2nc3nc(C)cc(C)n3n2)cc1 as the compound, how does the Potency read?
Answer: Its Potency is inconclusive [inhibitor, full curve].

Question: For CN1CC(c2ccc(Cl)c(Cl)c2)[C@@]2(COc3ccccc3C2=O)[C@@]12C(=O)Nc1ccccc12 (stereo partly specified), which Potency is on record?
Answer: The Potency was inconclusive [inhibitor, single point].

Question: With COc1cccc(OCC(O)CN2CCC(Cc3ccccc3)CC2)c1 (stereo unspecified) as the compound, how does the Potency read?
Answer: The Potency was active: 18.4 µM.

Question: For CC1(C)CC(=O)C(C(=O)c2ccccc2)C(=O)C1Cl (stereo unspecified), which “activity change, negative = growth inhibition” value is on record?
Answer: Its value is inactive: 25.1%.

Question: For COc1cc(OC)c2c(-c3ccccc3)cc(=O)oc2c1C(CCN1CCCCC1)c1ccc(N(C)C)cc1 (stereo unspecified), which Potency is on record?
Answer: The Potency was active: 14.6 µM.

Question: With CN(C)c1nc(-c2cccs2)cc(C(F)(F)F)c1C#N as the compound, how does the “activity change, negative = growth inhibition” value read?
Answer: Its value is inactive: -29.3%.
